{"source": "the RNAGym collection of RNA variant scans (doi:10.1093/nar/gkz1192)", "parents": {"B1": {"name": "CPEB3 Ribozyme (parent)", "chain": "UAACAGGGGGCCACAGCAGAAGCGUUCACGUCGCAGCCCCUGUCAGAUUCUGGUGAAUCUGCGAAUUCUGCUGUAUAUCUC"}}, "note": "The source gives no read counts; variants with many changes may rest on few reads.", "data": [{"variants_of": "B1", "experiment": "self-cleavage, relative activity (ratio to wild type); higher = more cleavage; in vitro, sequencing", "summary_of_the_method": "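After error-prone PCR and barcoding, CPEB3 ribozyme mutant libraries were transcribed with T7 RNA polymerase at 37°C for 5 hours, then given 15 min with DNase I before an EDTA stop, and they cleaved during both steps. Reverse transcription with template switching preceded Illumina sequencing. Relative activity divides a variant's cleaved/total read fraction by the unmutated ribozyme's. At least 5 reads were required per variant, and three batches were averaged.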", "values": [{"variant": "UAACAGGAGGCCACAGUAGAAGCGCUCACGUCGCGGCCCCUGUCAGAUUCUGGUGAAUCUGCGAAUUCUGCUGUAUAUCUC", "note": "[G8A C17U U25C A35G]", "self-cleavage": 0.06}, {"variant": "UAACAGGAGGUCACAGCAGAGGCGUUCACGUCGCAACCCCUGUCAGAUUCUGGUGAAUCUACGAAUUCUGCUGUAUAUCUC", "note": "[G8A C11U A21G G36A G61A]", "self-cleavage": 0.04}, {"variant": "UAACAGGAGGCUACAGCAGAAGCGUUCACGUCGCAGCCCCUGUCAGAUUCUGGUGAAUCUGCGAAUUCUGCUGUUUACCUC", "note": "[G8A C12U A75U U78C]", "self-cleavage": 0.08}, {"variant": "UAACAGGAGGCCACAGCAGAAGCGUUCACGUCGCAGCCCAUGUCAGAUUCUGGUGGGUCUGCGAAUUCAGCUGUAUAUCUC", "note": "[G8A C40A A56G A57G U69A]", "self-cleavage": 0.05}, {"variant": "UAACAGGAGACCACAGCAGAAGCGUUCACGGCGCAGCCCCUGUCAGAUUCUGGUGAAUCAGCGAAUUCCGCUGUAUAUCUC", "note": "[G8A G10A U31G U60A U69C]", "self-cleavage": 0.05}, {"variant": "UAACAGGAGGCCAUAGCAGAAGCGUUCACGUCGCAGCCCCUGUCAGAUUCUGGUGGAUCUGCGAAUUCUGCUGUAUAUCUC", "note": "[G8A C14U A56G]", "self-cleavage": 0.23}, {"variant": "UAACAGGAGGCCACAGCAGAAGCGUUUACGCCGCGGCCCCUGUCAGAUUCUGGUGAAUCUGCGAAUUCUGCAGUAUAUCUC", "note": "[G8A C27U U31C A35G U72A]", "self-cleavage": 0.05}, {"variant": "UAACAGGAGGCCACAGCAGAAGCGUUCACGUCGCAGCCCCUGUCAGAUUCUGGUGUAUCUACGUAUCCUGCUGUAUUUCUC", "note": "[G8A A56U G61A A64U U67C A77U]", "self-cleavage": 0.04}, {"variant": "UAACAGGAGGCCACAGCAGAAGCGUUCACGUCGAAGCCCCUGUCAGAUUCUGGCGAAUCCGCGAAUUCUGCUGUAUAUCUC", "note": "[G8A C34A U54C U60C]", "self-cleavage": 0.15}, {"variant": "UAACAGGAGGCCACAGCAGAAGCGUUCACGUCGCAGCCCCUGUCAGAUUGUGGUGAAUCUGCGAAUUCUGCAGUAUAUCUC", "note": "[G8A C50G U72A]", "self-cleavage": 0.07}, {"variant": "UAACAGGAGGCCACAGCAGAAGCGUUCACGUCGCAGCCCCUGUCAGGUUCUGGUGAACCUGCGAAUUCUGCUGUAUAUCUC", "note": "[G8A A47G U58C]", "self-cleavage": 0.27}, {"variant": "UAACAGGAGUCCACAGCAGAAGCUUUCUCGUCGCAGCCCCUGUCAGAUUCUGGUGAAUCUGCGAAUUCUGCUGUUUAUCUC", "note": "[G8A G10U G24U A28U A75U]", "self-cleavage": 0.47}, {"variant": "UAACAGGAGGCAACAGCAGAAGCGUUCACGUCGCAGCCCCCGUCAGAUUCUGGUGAAUCUGCGAAUUCUGCUGUAUAUCUC", "note": "[G8A C12A U41C]", "self-cleavage": 0.32}, {"variant": "UAACAGGAGGCCACAGCAGAAGCGUUCACGUCGCAGCCCCUGUCAGGUUCUGGUGAAUCUGCGAAUUCAGCUGUAUAUCUC", "note": "[G8A A47G U69A]", "self-cleavage": 0.2}, {"variant": "UAACAGGAGGCCACAGCAGAAGCGUUCACGUCGCAGCCCCUGUCAGUUACUGGUGAAUCUGCAAAUUCUGCAGUAUAUCUC", "note": "[G8A A47U U49A G63A U72A]", "self-cleavage": 0.05}, {"variant": "UAACAGGAGGCCACAGCAGAAGCGUUCACGUCGCAGCCCCUGUCAGAUUCUGGUGAAUCUGCGAAUUCUGCUGUGUAUAUC", "note": "[G8A A75G C79A]", "self-cleavage": 0.09}, {"variant": "UAACAGGAGGCCACAACAGAAGCGUUCACGCCGCAGCCACUGUCAGAUUCUGGCGAAUCUGCGAAUUCUGCUGUAUAUCUC", "note": "[G8A G16A U31C C39A U54C]", "self-cleavage": 0.05}, {"variant": "UAACAGGAGGCCACAGCAGAAGUGUUCACGUCGCAGCCCCUGUCAGAUUCUGGUGAAUCUGCGGAUUCUGCUGUAUAUCUC", "note": "[G8A C23U A64G]", "self-cleavage": 0.23}, {"variant": "UAACAGGAGUCCACAGCAGAAGCGUUCACGUCGCAGCCCCUGUCAGAUUCUGGUGAAUCUGCGAAUUCCGCUGUAUAUCUC", "note": "[G8A G10U U69C]", "self-cleavage": 0.15}, {"variant": "UAACAGGAGGCCACAGCAGAAGCGUUCACGUCGCAGCCCCUGUCAGAUUCUGGUGGAUCUGCGAAUUCUGCUGUAUAUCUA", "note": "[G8A A56G C81A]", "self-cleavage": 0.3}, {"variant": "UAACAGGAGGCUACAGCAGAAGCGUUCACGACGCAGCCCCUGUCAGAUUCUGGUGAAUCUGCGAAUUCUGCCGUAUAUCUC", "note": "[G8A C12U U31A U72C]", "self-cleavage": 0.06}, {"variant": "UAACAGGAGGCCACAGCAGAAGCGUUCACGUCGCAGCUCCAGUCAGAUUCUGGUGAAUCUGCGAAUUCUGCUGUAUUUCAC", "note": "[G8A C38U U41A A77U U80A]", "self-cleavage": 0.05}, {"variant": "UAACAGGAGGCCACAGCAGAAGCGUUCACGUCGCAGCCCCUGUUAGGUUCUGGUGAAUCUGCAAAUUCUGCUGUAUAUCUC", "note": "[G8A C44U A47G G63A]", "self-cleavage": 0.07}, {"variant": "UAACAGGAGGCCACAGCAGAAGCGUUCACGUCGCAGCCCCUGUCAGAUUCUGGUGGAUCUGCGAAUUCUGCCGUAUAUCUC", "note": "[G8A A56G U72C]", "self-cleavage": 0.29}, {"variant": "UAACAGGAGGCCACAGCAGAAGGGUUCACGUCGCAGCCCCUGUCAGAUCCUGGUGAAUCUGCGAAUUCUGCAGCAUAUCUC", "note": "[G8A C23G U49C U72A U74C]", "self-cleavage": 0.13}, {"variant": "UAACAGGAGGCCAGAGCAGAAGCGUCCACGUCGCAGCCCCUGUCAGAUUCUGGUGAAUCUGCGAAUUCUGCUGUAUUUCUU", "note": "[G8A C14G U26C A77U C81U]", "self-cleavage": 0.05}, {"variant": "UAACAGGAGGCCACAGCAGAAGCGUUCACGUCGUAGCCCCUGUCAGAUUCUGGUGAAUCUACGAAUUCUGCUGUAUAUCUC", "note": "[G8A C34U G61A]", "self-cleavage": 0.06}, {"variant": "UAACAGGAGGCCACAGCAGAAGCGUUCACGUCGCAGCCCCUGUCUGAUUCUGGUGGAUCUGCGAAUUCUGCUGCAUAUCUC", "note": "[G8A A45U A56G U74C]", "self-cleavage": 0.05}, {"variant": "UAACAGGAGGCCACAGCAGAAGCGUUCACGUCGCAGCACUUGUCAGAUUCUGGUGAAUCUGCGAACUCUGCCGUAUAUCUC", "note": "[G8A C38A C40U U66C U72C]", "self-cleavage": 0.27}, {"variant": "UAACAGGAGGCCACAGCAGAAGCGUUCAAGUCGAAGCCCUUGUAAGAUUCUGGUGUAGCUGCGAAUUCUGCUGUAUAUCUC", "note": "[G8A C29A C34A C40U C44A A56U U58G]", "self-cleavage": 0.02}, {"variant": "UAACAGGAGGCCACAGCAGAAGCGUUCACGUCGCAGCCACUGUCAGAUUCUGGUGAAUCUGCGAUUUCUGCUGUAUAUCUC", "note": "[G8A C39A A65U]", "self-cleavage": 0.05}, {"variant": "UAACAGGAGACCACAGCAGAAGCGUUCACGUCGCAGCCCCUGUCAGAUUCUGGUGAAUCAGCGAGUUCUGCUGUAUAUCUC", "note": "[G8A G10A U60A A65G]", "self-cleavage": 0.06}, {"variant": "UAACAGGAGGCCACAGCAGAAGCGUUCACGUCGCAGCCCCUGUCAGAUUCUGGUGAGUCUGCGGAUUCCGCUGUAUACCUC", "note": "[G8A A57G A64G U69C U78C]", "self-cleavage": 0.04}, {"variant": "UAACAGGAGGCCACAGCAGAAGAGUUCACGUCGCAGCCCCUGUCAGAUACUGGUGAAUCCGCGAAUUCUGCUGUAUAUCUC", "note": "[G8A C23A U49A U60C]", "self-cleavage": 0.04}]}]}
